Experimental data from PMC6919601, “Identification of Plasmodium dipeptidyl aminopeptidase allosteric inhibitors by high throughput screening” (PLoS ONE, 2019).
The whole screen tested about 110,000 compounds, of which about 230 (0.21%) showed an effect of 50% or more. The list shows a part of the results.

molecular target: DPAP1 (Plasmodium falciparum, UniProt Q8IIJ9); assay: primary screen, percent inhibition; read by cleavage of a fluorogenic dipeptide substrate; higher = more effect of the substance; set-up: species or system P. falciparum D10 trophozoite lysates; single well
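Further: 30 min substrate incubation versus DMSO and 10 µM JCP410 controls.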

Sequence of DPAP1 (Q8IIJ9 whole entry, looked up): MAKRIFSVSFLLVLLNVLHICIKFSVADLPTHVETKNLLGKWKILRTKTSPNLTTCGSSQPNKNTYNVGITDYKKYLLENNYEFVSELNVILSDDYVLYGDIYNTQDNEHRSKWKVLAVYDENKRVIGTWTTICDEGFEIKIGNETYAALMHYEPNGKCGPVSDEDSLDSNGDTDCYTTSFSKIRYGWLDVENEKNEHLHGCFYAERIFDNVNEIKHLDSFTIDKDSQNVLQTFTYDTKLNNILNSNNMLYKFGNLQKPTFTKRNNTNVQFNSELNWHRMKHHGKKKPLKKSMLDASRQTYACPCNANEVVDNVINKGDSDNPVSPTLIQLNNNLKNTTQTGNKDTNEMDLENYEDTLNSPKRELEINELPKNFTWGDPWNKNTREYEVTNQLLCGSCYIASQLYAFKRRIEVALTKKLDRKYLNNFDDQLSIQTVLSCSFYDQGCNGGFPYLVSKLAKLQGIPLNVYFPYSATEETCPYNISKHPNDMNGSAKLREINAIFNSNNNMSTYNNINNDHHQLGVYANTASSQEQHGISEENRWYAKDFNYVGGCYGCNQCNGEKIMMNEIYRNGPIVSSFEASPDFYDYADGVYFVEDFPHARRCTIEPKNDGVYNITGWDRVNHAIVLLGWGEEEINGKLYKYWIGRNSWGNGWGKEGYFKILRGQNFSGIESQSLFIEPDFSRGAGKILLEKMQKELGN

SMILES | % Inhibition @ 10 uM
CCOC(=O)/C(C#N)=C/c1c(Oc2ccccc2)nc2ccccn2c1=O | 9.35%
COc1cccc(C2CC(C(F)(F)F)n3ncc(C(=O)N4CC5(C)CC4CC(C)(C)C5)c3N2)c1 (stereo not shown) | -1.72%
COc1ccc(C(=O)NCc2ccc(C)cc2)cc1 | -3.37%
CCOc1cc(C(=O)Nc2cccc(C)n2)cc(OCC)c1OCC | 5.06%
COc1cc(OC)cc(C(=O)Nc2ccc3ccccc3c2)c1 | 1.04%
COc1ccccc1N1CCN(C(C)Cc2ccc(F)cc2)CC1 (stereo not shown) | -1.41%
COc1cc(S(=O)(=O)N2CCN(c3ccc(C)c(Cl)c3)CC2)ccc1Cl | -1.02%
CCCCNCc1c(C(=O)O)n(Cc2cc(C)ccc2C)c2ccccc12 | -5.05%
CN1CCC(N(C)Cc2ccc(Cl)cc2)CC1 | 3.16%
CCCCS(=O)(=O)CC1CC1(Cl)Cl (stereo not shown) | -0.0626%
Oc1c2nc3ccccc3c-2ncn1CCN1CCN(Cc2ccccc2)CC1 | 6.31%
Cn1c(=O)n(Cc2ccccc2)c(=O)c2c1ncn2CCO | -1.52%
CC(C)Nc1cc(-c2ccccc2)nc2nncn12 | -2.79%
CSC1=N/C(=C\c2c(C)nn(-c3ccccc3)c2Cl)C(=O)S1 | -3.33%
COc1cccc(C2C(C#N)=C(N)Oc3cc(C)oc(=O)c32)c1OC (stereo not shown) | -0.0372%
CCCCc1nc2ccccc2n1C(C)C(=O)O (stereo not shown) | -3.53%
O=C(COCc1cc(-c2ccc(F)cc2)on1)N1CCN(C(=O)c2ccco2)CC1 | -4.38%
COc1ccc2c(c1)C1=NN(/C(C)=C/C(C)=O)C(c3cccc(F)c3)C1CC2 (stereo not shown) | -3.23%
COC(=O)C1=C(C)N(C)C(C)=C(C(=O)OC)C1c1ccc(OC)c(OC)c1 | 6.12%
Cc1ccsc1/C=C1/SC(=O)N(CC(=O)N2CCOCC2)C1=O | -2.44%
CCN(CC)CCCNC(=O)CN1C(=O)C(c2ccccc2)Oc2cccnc21 (stereo not shown) | -3.56%
Cc1ccc(N2C(=O)C3CC=CC(C)C3C2=O)c(C)c1 (stereo not shown) | -5.46%
CCOc1cccc2c1OC(c1cccc(OC)c1OC)N1N=C(c3cccc(OC)c3)CC21 (stereo not shown) | 19.2%
Cc1cc(C)n2nc(SCC(=O)NCCc3ccccc3)nc2n1 | -0.519%
CC1=C(C#N)C(c2cccc(O)c2)C2=C(O)CC(C)(C)CC2=N1 (stereo not shown) | -3.77%
CC(C)CS(=O)(=O)C1=NN2C(=N)/C(=C\c3ccc(SCc4ccco4)o3)C(=O)N=C2S1 | 39.2%
O=C(COCC(=O)N1CCCC1)N1CCCC1 | -5.41%
CN(c1ncnc2c1cnn2-c1ccc(Cl)cc1)C1CCCCC1 | -1.1%
